# Results taken from the supplement of paper PMC8728848.
# The list shows a part of the results.
# B1: CPA (Cicer arietinum) (protein)
# chain: MAFSYLNLVLVTLTTLFFLQTTKVKSQKSVSFHITNFTISRPSITLQGTAEFLPNVLLLNDIEHPVFVVGRALYSKPITLWNNKTGKVASFVTSFTFDVQDLKKTVPGHGLVFFLAPSGSEIPFSSDGGNLGVVDGKNAFNRFVGVEFDNFVNSWDPKYSHVGINVNSLISTKTVKWNRVSGELVKVSIVYDSVSTTLTVIVTYKNGQISILSQLVDLKAVLPDTVNIGFSASTTLVSPRQLHNIHSWSFTSTFET
# Experiments:
# Assay in all cases: glycan array binding signal (z-score within array); higher = stronger binding
# Conditions in all cases: glycan notation: IUPAC condensed, linker removed
# [1] = molecular target: Gal(a1-3)Gal(b1-3)GlcNAc(b1-2)Man
# Summary of the method: (§1)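 The binding signal is a Z-score computed within each array and averaged over linkers. Arrays of the same protein sequence at different concentrations or buffers were also averaged together. Data originate from 3228 arrays in the Consortium for Functional Glycomics database, kept only where the protein sequence was available.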
# [2] = molecular target: Gal(a1-3)Gal(b1-3)GlcNAc(b1-2)Man(a1-3)[Gal(a1-3)Gal(b1-3)GlcNAc(b1-2)Man(a1-6)]Man(b1-4)GlcNAc(b1-4)GlcNAc
# Summary of the method: as §1
# [3] = molecular target: Gal(a1-3)Gal(b1-3)GlcNAc(b1-3)GalNAc
# Summary of the method: as §1
# [4] = molecular target: Gal(a1-3)Gal(b1-3)GlcNAc(b1-6)GalNAc
# Summary of the method: as §1
# [5] = molecular target: Gal(a1-3)Gal(b1-3)[Fuc(a1-4)]GlcNAc(b1-2)Man(a1-3)[Gal(a1-3)Gal(b1-3)[Fuc(a1-4)]GlcNAc(b1-2)Man(a1-6)]Man(b1-4)GlcNAc(b1-4)GlcNAc
# Summary of the method: as §1
# [6] = molecular target: Gal(a1-3)Gal(b1-4)Glc
# Summary of the method: as §1
# [7] = molecular target: Gal(a1-3)Gal(b1-4)GlcNAc
# Summary of the method: as §1
# [8] = molecular target: Gal(a1-3)Gal(b1-4)GlcNAc(b1-2)Man
# Summary of the method: as §1
# [9] = molecular target: Gal(a1-3)Gal(b1-4)GlcNAc(b1-2)Man(a1-3)[Gal(a1-3)Gal(b1-4)GlcNAc(b1-2)Man(a1-6)]Man(b1-4)GlcNAc(b1-4)GlcNAc
# Summary of the method: as §1
# [10] = molecular target: Gal(a1-3)Gal(b1-4)GlcNAc(b1-3)GalNAc
# Summary of the method: as §1
# [11] = molecular target: Gal(a1-3)Gal(b1-4)GlcNAc(b1-6)GalNAc
# Summary of the method: as §1
# [12] = molecular target: Gal(a1-3)Gal(b1-4)[Fuc(a1-3)]GlcNAc
# Summary of the method: as §1
# [13] = molecular target: Gal(a1-3)Gal(b1-4)[Fuc(a1-3)]GlcNAc(b1-2)Man(a1-3)[Gal(a1-3)Gal(b1-4)[Fuc(a1-3)]GlcNAc(b1-2)Man(a1-6)]Man(b1-4)GlcNAc(b1-4)GlcNAc
# Summary of the method: as §1
# [14] = molecular target: Gal(a1-3)GalNAc
# Summary of the method: as §1
# [15] = molecular target: Gal(a1-3)[Gal(a1-4)]Gal(b1-4)GlcNAc
# Summary of the method: as §1
# [16] = molecular target: Gal(a1-4)Gal(b1-3)GlcNAc(b1-2)Man(a1-3)[Gal(a1-4)Gal(b1-3)GlcNAc(b1-2)Man(a1-6)]Man(b1-4)GlcNAc(b1-4)GlcNAc
# Summary of the method: as §1
# [17] = molecular target: Gal(a1-4)Gal(b1-4)Glc
# Summary of the method: as §1
# [18] = molecular target: Gal(a1-4)Gal(b1-4)GlcNAc
# Summary of the method: as §1
# [19] = molecular target: Gal(a1-4)Gal(b1-4)GlcNAc(b1-2)Man(a1-3)[Gal(a1-4)Gal(b1-4)GlcNAc(b1-2)Man(a1-6)]Man(b1-4)GlcNAc(b1-4)GlcNAc
# Summary of the method: as §1
# [20] = molecular target: Gal(a1-4)Gal(b1-4)GlcNAc(b1-3)Gal(b1-4)Glc
# Summary of the method: as §1
# [21] = molecular target: Gal(a1-4)GlcNAc
# Summary of the method: as §1
# [22] = molecular target: Gal(a1-6)Glc
# Summary of the method: as §1
# [23] = molecular target: Gal(b1-2)Gal
# Summary of the method: as §1
# [24] = molecular target: Gal(b1-3)Gal
# Summary of the method: as §1
# [25] = molecular target: Gal(b1-3)Gal(b1-4)GlcNAc
# Summary of the method: as §1
# [26] = molecular target: Gal(b1-3)GalNAc
# Summary of the method: as §1
# [27] = molecular target: Gal(b1-3)GalNAc(a1-3)[Fuc(a1-2)]Gal(b1-4)Glc
# Summary of the method: as §1
# [28] = molecular target: Gal(b1-3)GalNAc(a1-3)[Fuc(a1-2)]Gal(b1-4)GlcNAc
# Summary of the method: as §1
# [29] = molecular target: Gal(b1-3)GalNAc(b1-3)Gal
# Summary of the method: as §1
# [30] = molecular target: Gal(b1-3)GalNAc(b1-3)Gal(a1-4)Gal(b1-4)Glc
# Summary of the method: as §1
# [31] = molecular target: Gal(b1-3)GalNAc(b1-4)Gal(b1-4)Glc
# Summary of the method: as §1
# [32] = molecular target: Gal(b1-3)GalNAc(b1-4)[Neu5Ac(a2-3)]Gal(b1-4)Glc
# Summary of the method: as §1
# [33] = molecular target: Gal(b1-3)GlcNAc
# Summary of the method: as §1
# [34] = molecular target: Gal(b1-3)GlcNAc(a1-3)Gal(b1-4)GlcNAc
# Summary of the method: as §1
# [35] = molecular target: Gal(b1-3)GlcNAc(a1-6)Gal(b1-4)GlcNAc
# Summary of the method: as §1
# [36] = molecular target: Gal(b1-3)GlcNAc(b1-2)Man
# Summary of the method: as §1
# [37] = molecular target: Gal(b1-3)GlcNAc(b1-2)Man(a1-3)[Gal(b1-3)GlcNAc(b1-2)Man(a1-6)]Man(b1-4)GlcNAc(b1-4)GlcNAc
# Summary of the method: as §1
# [38] = molecular target: Gal(b1-3)GlcNAc(b1-2)Man(a1-3)[Gal(b1-3)GlcNAc(b1-2)Man(a1-6)]Man(b1-4)GlcNAc(b1-4)[Fuc(a1-6)]GlcNAc
# Summary of the method: as §1
binder,measurement,setting,value
B1,glycan array binding signal (z-score),[1],-0.562
same,glycan array binding signal (z-score),[2],1.36
same,glycan array binding signal (z-score),[3],0.618
same,glycan array binding signal (z-score),[4],-0.42
same,glycan array binding signal (z-score),[5],0.177
same,glycan array binding signal (z-score),[6],0.092
same,glycan array binding signal (z-score),[7],-0.497
same,glycan array binding signal (z-score),[8],-0.354
same,glycan array binding signal (z-score),[9],0.169
same,glycan array binding signal (z-score),[10],0.211
same,glycan array binding signal (z-score),[11],-0.23
same,glycan array binding signal (z-score),[12],0.094
same,glycan array binding signal (z-score),[13],0.913
same,glycan array binding signal (z-score),[14],-0.121
same,glycan array binding signal (z-score),[15],2.44
same,glycan array binding signal (z-score),[16],-0.307
same,glycan array binding signal (z-score),[17],0.019
same,glycan array binding signal (z-score),[18],0.774
same,glycan array binding signal (z-score),[19],-0.333
same,glycan array binding signal (z-score),[20],-0.689
same,glycan array binding signal (z-score),[21],-0.019
same,glycan array binding signal (z-score),[22],-0.457
same,glycan array binding signal (z-score),[23],-0.481
same,glycan array binding signal (z-score),[24],-0.314
same,glycan array binding signal (z-score),[25],-0.367
same,glycan array binding signal (z-score),[26],-0.456
same,glycan array binding signal (z-score),[27],-0.568
same,glycan array binding signal (z-score),[28],-0.368
same,glycan array binding signal (z-score),[29],2.92
same,glycan array binding signal (z-score),[30],-0.436
same,glycan array binding signal (z-score),[31],-0.151
same,glycan array binding signal (z-score),[32],-0.46
same,glycan array binding signal (z-score),[33],0.157
same,glycan array binding signal (z-score),[34],-0.462
same,glycan array binding signal (z-score),[35],-0.701
same,glycan array binding signal (z-score),[36],0.192
same,glycan array binding signal (z-score),[37],1.19
same,glycan array binding signal (z-score),[38],-0.606
